The campaign covered roughly 230,000 compounds. About 3,600 (1.6%) were called active. The shares of active, inactive and inconclusive entries below differ from those in the screen. Calls come from the whole dose curve; as a rule, active = well fitted inhibition curve with a large enough effect (not every such curve was filed as active); inconclusive = small, poorly fitted or top-dose-only effect, or another doubt; inactive = no such curve, though single readings can be large or run the other way. Potencies of inconclusive entries are doubtful fits and often do not repeat.
What follows are compounds tested against Lysine-specific demethylase 4E (Homo sapiens) (UniProt B2RXH2) (assay: qHTS Assay for Inhibitors of Human Jumonji Domain Containing 2E (JMJD2E)). Conditions: JMJD2E catalytic domain, FDH-coupled NADH fluorescence (FDH is formaldehyde dehydrogenase); series mostly up to 57.1 µM; activity change, negative = inhibition: at the top concentration.
Note: nearly all actives have a fitted effect of over 50% in size.
Potency is the fitted concentration of half-maximal effect; tags give direction and shape of the fitted curve.
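Throughout, for activity change, negative = inhibition: 0% = wells with enzyme and -100% = buffer wells without enzyme.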

Sequence of UniProt B2RXH2 (B2RXH2 whole entry, looked up, the tested form may be a part): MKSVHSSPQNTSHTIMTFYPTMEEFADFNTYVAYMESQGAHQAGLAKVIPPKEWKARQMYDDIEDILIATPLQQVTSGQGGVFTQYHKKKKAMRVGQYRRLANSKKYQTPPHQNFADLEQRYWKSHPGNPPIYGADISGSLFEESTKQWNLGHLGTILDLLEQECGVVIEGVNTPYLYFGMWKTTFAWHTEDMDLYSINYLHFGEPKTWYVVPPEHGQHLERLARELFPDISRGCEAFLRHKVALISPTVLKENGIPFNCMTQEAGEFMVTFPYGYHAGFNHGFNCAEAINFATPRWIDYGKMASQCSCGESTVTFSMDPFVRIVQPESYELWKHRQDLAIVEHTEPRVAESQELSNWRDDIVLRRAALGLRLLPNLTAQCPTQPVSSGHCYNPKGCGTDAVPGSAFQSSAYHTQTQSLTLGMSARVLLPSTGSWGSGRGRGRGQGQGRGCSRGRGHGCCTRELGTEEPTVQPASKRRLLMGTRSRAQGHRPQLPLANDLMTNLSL

SMILES	activity change, negative = inhibition	Potency
CCc1cccc(NC(=O)CSCc2cc(=O)[nH][nH]2)c1	inactive: -5.79%	
CC(C)n1c(=N)c(C(=O)NCCc2ccccc2)cc2c(=O)n3ccccc3nc21		inconclusive: 28.2 µM [inhibitor, partial curve]
CC(=O)Nc1ccc(Nc2cc(C)nc3c(-c4ccc(Cl)cc4)cnn23)cc1		inconclusive: 35.5 µM [inhibitor, partial curve]
COCc1cc(=O)[nH]c2cc(NC(=O)C(F)(F)F)c(C)cc12		inconclusive: 3.55 µM [inhibitor, partial curve]
N#Cc1c(SCC(=O)N2CCCCC2)nsc1SCC(=O)N1CCCCC1	inactive: 3.43%	
N#CC1=C(N)N=C(SCc2cccc3ccccc23)C(C(N)=O)C12CCCCC2 (stereo not given)	inactive: 4.95%	
C=CCn1c(SCC(=O)c2ccc(OC)cc2)nnc1-c1cc2cccc(OC)c2o1	inactive: -12.3%	
Cc1ccc2nc3c(c(C(=O)OCC(=O)N(C)C4CCS(=O)(=O)C4)c2c1)CCCC3 (stereo not given)		inconclusive: 31.6 µM [inhibitor, partial curve]
Cc1cccc2sc(NC(=O)CN(C)S(=O)(=O)c3ccc(Br)s3)nc12	inactive: 4.13%	
COC(C(=O)Nc1cccc(F)c1)c1ccccc1 (stereo not given)		inconclusive: 0.0224 µM [inhibitor, partial curve, poor fit]
CCOc1cccc(CNc2ccc(O)cc2)c1OCc1ccc(Cl)cc1Cl		inconclusive: 3.98 µM [inhibitor, full curve]
Cc1nc2sc3c(NCc4ccco4)ncnc3c2c2c1COC(C)(C)C2		inconclusive: 22.4 µM [inhibitor, partial curve]
c1ncc(-c2ccc3c(c2)OCO3)c(NCCc2cnc[nH]2)n1		inconclusive: 28.2 µM [inhibitor, single point]
CCc1cccc(OCCCn2ccnc2)c1		inconclusive: 28.2 µM [inhibitor, single point]
Cc1cc2cc(CNC(=O)C(C)Oc3ccccc3)ccc2n1C (stereo not given)		inconclusive: 39.8 µM [inhibitor, single point]
CCN1CCN(c2ccc(NC(=O)c3ccc([N+](=O)[O-])o3)cc2Cl)CC1	inactive: 0.119%	
CC(C)(C)c1ccc(C(=O)Nn2c(CCC(=O)O)ccc2-c2cccs2)cc1	inactive: -21%	
CCOC(=O)CSc1nnc(CNc2ccc(Cl)cc2)n1-c1ccccc1	inactive: 2.76%	
CC1CCC(N2CCN(S(C)(=O)=O)CC2)CC1 (stereo not given)		inconclusive: 25.1 µM [inhibitor, single point]
CC(=O)Nc1ccc(NC(=O)c2ccc(NS(=O)(=O)c3cc(C(C)(C)C)ccc3C)cc2)cc1		inconclusive: 31.6 µM [inhibitor, partial curve]

From PubChem BioAssay AID2147 (National Center for Advancing Translational Sciences (NCATS), 2009)
